{"source": "paper PMC4336329", "about": "(PLoS ONE, 2015)", "note": "In all, about 310,000 compounds went through this assay and about 14,000 (4.5%) showed an effect of 50% or more. Effects have a minus sign here. This is one part of the list.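 Further: peak tail current of the secondary pulse compared with the same well before compound.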", "data": [{"target": "human ether-à-go-go-related gene (hERG) potassium channel (human, UniProt Q12809)", "sequence (Q12809 whole entry, looked up)": "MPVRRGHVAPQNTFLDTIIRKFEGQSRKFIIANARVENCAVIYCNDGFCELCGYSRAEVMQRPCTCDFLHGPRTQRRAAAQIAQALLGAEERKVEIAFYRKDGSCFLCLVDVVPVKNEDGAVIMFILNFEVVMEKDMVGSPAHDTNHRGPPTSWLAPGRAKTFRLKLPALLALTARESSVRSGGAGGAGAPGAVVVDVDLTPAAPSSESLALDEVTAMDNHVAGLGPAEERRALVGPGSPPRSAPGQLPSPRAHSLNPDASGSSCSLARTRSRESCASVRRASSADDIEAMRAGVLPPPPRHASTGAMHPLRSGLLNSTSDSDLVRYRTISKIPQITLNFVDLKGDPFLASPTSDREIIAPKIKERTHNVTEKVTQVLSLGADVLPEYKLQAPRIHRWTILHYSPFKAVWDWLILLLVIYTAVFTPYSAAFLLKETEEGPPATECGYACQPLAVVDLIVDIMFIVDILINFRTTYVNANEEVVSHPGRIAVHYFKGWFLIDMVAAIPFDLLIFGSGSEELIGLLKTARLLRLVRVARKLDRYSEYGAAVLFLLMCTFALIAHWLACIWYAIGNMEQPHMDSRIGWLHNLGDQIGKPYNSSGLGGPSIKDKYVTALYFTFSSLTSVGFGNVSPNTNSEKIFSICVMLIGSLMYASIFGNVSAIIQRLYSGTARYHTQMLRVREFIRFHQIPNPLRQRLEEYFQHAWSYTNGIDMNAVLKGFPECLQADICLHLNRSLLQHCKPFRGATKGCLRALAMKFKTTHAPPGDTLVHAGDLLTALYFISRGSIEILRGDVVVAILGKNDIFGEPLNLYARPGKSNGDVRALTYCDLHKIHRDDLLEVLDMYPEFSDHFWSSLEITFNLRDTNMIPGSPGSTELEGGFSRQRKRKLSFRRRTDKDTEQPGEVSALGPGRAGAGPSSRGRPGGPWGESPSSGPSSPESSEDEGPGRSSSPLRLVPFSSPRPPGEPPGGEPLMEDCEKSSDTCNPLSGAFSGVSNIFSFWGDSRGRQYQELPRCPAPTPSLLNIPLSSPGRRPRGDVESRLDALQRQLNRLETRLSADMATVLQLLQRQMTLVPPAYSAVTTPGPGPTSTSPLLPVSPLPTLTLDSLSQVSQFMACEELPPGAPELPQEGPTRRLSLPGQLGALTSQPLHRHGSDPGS", "assay": "primary screen, population patch clamp on CHO cells stably expressing hERG", "units": {"hERG current change (%, negative = inhibition) at 10uM": "%"}, "values": [{"smiles": "COc1ccc(C(=O)/C=C(\\C)Nc2ccc(NC(C)=O)cc2)cc1", "hERG current change (%, negative = inhibition) at 10uM": -14.8}, {"smiles": "CC(C)(C)NC(=O)Cn1nnc(-c2ccc(OCc3c(F)cccc3Cl)cc2)n1", "hERG current change (%, negative = inhibition) at 10uM": 9.07}, {"smiles": "CCO[C@H]1OC(C(=O)Nc2ccccc2)=C[C@@H](c2ccc(Br)cc2)[C@@H]1CCCO", "hERG current change (%, negative = inhibition) at 10uM": -4.47}, {"smiles": "OCCN(Cc1ccccc1)CC1CC=CCC1", "note": "(stereo not drawn)", "hERG current change (%, negative = inhibition) at 10uM": -10.8}, {"smiles": "COc1ccc(Br)cc1/C=N/NC(=O)Cn1nnnc1N", "hERG current change (%, negative = inhibition) at 10uM": 17.9}, {"smiles": "Cn1nccc1C(=O)NC1CCN(Cc2ccccc2)CC1", "hERG current change (%, negative = inhibition) at 10uM": -14.4}, {"smiles": "O=C1C(=O)N(CCN2CCOCC2)C(c2ccccn2)/C1=C(/O)c1ccc(Cl)cc1", "note": "(stereo not drawn)", "hERG current change (%, negative = inhibition) at 10uM": 6.78}, {"smiles": "Cc1cc(Cl)ccc1NNC(=O)c1cccs1", "hERG current change (%, negative = inhibition) at 10uM": 3.09}, {"smiles": "Cc1ccc(NC(=O)CCSc2ccccn2)cc1", "hERG current change (%, negative = inhibition) at 10uM": 14.5}, {"smiles": "CCCc1cc(C(=O)Nc2cccc(Cl)c2C)no1", "hERG current change (%, negative = inhibition) at 10uM": -15.1}, {"smiles": "Cc1ccc(C(=O)CC(c2cccs2)S(=O)(=O)c2ccc(C)cc2)cc1", "note": "(stereo not drawn)", "hERG current change (%, negative = inhibition) at 10uM": 11.5}, {"smiles": "Cc1ccc(Nc2nc3nonc3nc2N(C)C)cc1", "hERG current change (%, negative = inhibition) at 10uM": 4.56}, {"smiles": "Cc1c(O)ccc2c(CN3CCN(Cc4ccccc4)CC3)cc(=O)oc12", "hERG current change (%, negative = inhibition) at 10uM": -61.9}, {"smiles": "COc1ccc(-c2nc(CN3CCCC(C(=O)NC4CCCC4)C3)c(C)o2)cc1", "note": "(stereo not drawn)", "hERG current change (%, negative = inhibition) at 10uM": -64.4}, {"smiles": "CCCNC(=S)Nc1cc2oc3ccccc3c2cc1OC", "hERG current change (%, negative = inhibition) at 10uM": 11.8}, {"smiles": "O=C1C(Cl)=C(N2CCCC2)C(=O)N1c1ccc(F)cc1", "hERG current change (%, negative = inhibition) at 10uM": 0.422}, {"smiles": "CCN(CC(=O)Nc1cc(Cl)ccc1C)C(=O)CSCc1c(C)noc1C", "hERG current change (%, negative = inhibition) at 10uM": -11.9}, {"smiles": "COc1cccc(NC(=O)CSc2nc(O)c(C)c(=O)n2-c2ccc(C)cc2)c1", "hERG current change (%, negative = inhibition) at 10uM": 25.9}, {"smiles": "COc1cc2c(cc1OC)-c1nc3ccccc3c(=O)n1C(C)(C)C2", "hERG current change (%, negative = inhibition) at 10uM": -17.4}, {"smiles": "OC(CN1CCN(c2ccccn2)CC1)Cn1c2ccccc2c2ccccc21", "note": "(stereo not drawn)", "hERG current change (%, negative = inhibition) at 10uM": -29.8}, {"smiles": "COc1ccc2nc(N3CCCC3)c(C#N)cc2c1", "hERG current change (%, negative = inhibition) at 10uM": 2.79}, {"smiles": "Cc1coc2cc3oc(=O)c(CCC(=O)NCCCN4CCOCC4)c(C)c3cc12", "hERG current change (%, negative = inhibition) at 10uM": -9.89}, {"smiles": "CCOC(=O)c1cnn(-c2nc(-c3ccc(F)cc3)cs2)c1C(F)(F)F", "hERG current change (%, negative = inhibition) at 10uM": -26}, {"smiles": "O=C(NCCC1=CCCCC1)c1cnccn1", "hERG current change (%, negative = inhibition) at 10uM": 13.6}, {"smiles": "COc1ccc(C)cc1N(CC(=O)N1CCc2ccccc2C1)S(C)(=O)=O", "hERG current change (%, negative = inhibition) at 10uM": -11.7}, {"smiles": "O=C(CN1CCOCC1)NCc1ccccc1Cl", "hERG current change (%, negative = inhibition) at 10uM": 11.5}, {"smiles": "CCn1c(SCc2ccccc2)nnc1C1CCCCC1", "hERG current change (%, negative = inhibition) at 10uM": -11.2}, {"smiles": "N#Cc1c(-c2ccccc2)nc(SCC(=O)N(c2ccccc2)c2ccccc2)[nH]c1=O", "hERG current change (%, negative = inhibition) at 10uM": 11}, {"smiles": "Cc1cccc(N2Cc3ccccc3C2=NC(=O)c2ccc(Cl)nc2)c1", "hERG current change (%, negative = inhibition) at 10uM": -14.2}, {"smiles": "Cc1c(C(=O)N2CCN(c3ccc(F)cc3)CC2)sc2nc(-c3ccccc3)cn12", "hERG current change (%, negative = inhibition) at 10uM": -13.4}, {"smiles": "CC(Oc1ccc(Cl)cc1Cl)C(=O)OCn1nnc2ccccc2c1=O", "note": "(stereo not drawn)", "hERG current change (%, negative = inhibition) at 10uM": 11.1}, {"smiles": "O=C1NC2(CCCCCC2)N=C1c1ccc(Br)cc1", "hERG current change (%, negative = inhibition) at 10uM": 4.52}, {"smiles": "Cc1nc(-c2ccc(F)cc2)c(CC(=O)N2CCN(S(=O)(=O)c3ccccc3Br)CC2)s1", "hERG current change (%, negative = inhibition) at 10uM": -26.9}, {"smiles": "Cc1ccc(NC(=O)CSc2nc3ccccc3c(=O)n2CCCC(=O)NCCCN2CCOCC2)cc1C", "hERG current change (%, negative = inhibition) at 10uM": -69.1}, {"smiles": "O=C(O)C(=O)O.c1ccc(CNC2=NCCCC2)cc1", "hERG current change (%, negative = inhibition) at 10uM": 1.76}, {"smiles": "CCOn1c(=O)c(-c2ccc(F)cc2)[n+]([O-])c2ccccc21", "hERG current change (%, negative = inhibition) at 10uM": 18.5}, {"smiles": "CC(=O)N=Cc1c(C)c(C#N)c(=O)n(C)c1O", "hERG current change (%, negative = inhibition) at 10uM": 12.6}, {"smiles": "O=C(O)Cc1ccc(NC(=O)C2CC=CCC2C(=O)O)cc1", "note": "(stereo not drawn)", "hERG current change (%, negative = inhibition) at 10uM": 23.7}, {"smiles": "O=C(Nc1ccc2c(c1)OCCO2)C1CCCN1S(=O)(=O)c1ccc(Cl)cc1", "note": "(stereo not drawn)", "hERG current change (%, negative = inhibition) at 10uM": -11.3}, {"smiles": "Cc1ccc2nc(NC(=O)C3CCCN(S(=O)(=O)c4cccc5nonc45)C3)sc2c1", "note": "(stereo not drawn)", "hERG current change (%, negative = inhibition) at 10uM": 5.95}, {"smiles": "CC(C)[C@H](NS(=O)(=O)c1ccccc1)C(=O)OCC(=O)Nc1ccccc1Sc1ccccc1", "hERG current change (%, negative = inhibition) at 10uM": 1.98}, {"smiles": "CC1CCC2(CC1)NC(=O)N(NC(=O)c1cc3ccccc3o1)C2=O", "note": "(stereo not drawn)", "hERG current change (%, negative = inhibition) at 10uM": 15.6}, {"smiles": "CCc1c(C2(O)CCCCC2)[nH]c2cc(C(F)(F)F)ccc12", "hERG current change (%, negative = inhibition) at 10uM": -4.27}, {"smiles": "Cc1ccccc1NC(=O)N1CCCC(c2nc(-c3ccc(C(C)C)cc3)no2)C1", "note": "(stereo not drawn)", "hERG current change (%, negative = inhibition) at 10uM": -12.3}, {"smiles": "Cc1nnc(-c2ccc(Cl)cc2)nc1NCCN(C)C", "hERG current change (%, negative = inhibition) at 10uM": -38.9}, {"smiles": "OC(c1ccccn1)c1c[nH]c2ccccc12", "note": "(stereo not drawn)", "hERG current change (%, negative = inhibition) at 10uM": 15}, {"smiles": "OC1(C#Cc2c(-c3ccsc3)oc3ccc(N4CCOCC4)cc23)CCCCC1", "hERG current change (%, negative = inhibition) at 10uM": 14.1}, {"smiles": "CCCCn1c(=O)[nH]c(=O)c2c1nc(-c1ccc(OCCC)c(OCC)c1)n2C", "hERG current change (%, negative = inhibition) at 10uM": 2.05}, {"smiles": "CCCCCc1nc(-c2nonc2N)no1", "hERG current change (%, negative = inhibition) at 10uM": 14.3}, {"smiles": "COc1cc(OC)c(N(C)S(=O)(=O)c2cccc(C(=O)OCc3c(C)noc3C)c2)cc1Cl", "hERG current change (%, negative = inhibition) at 10uM": 16.4}, {"smiles": "O=C(c1ccc(OC2CCN(Cc3ccccn3)CC2)cc1)N1CCCCCC1", "hERG current change (%, negative = inhibition) at 10uM": -14.9}, {"smiles": "Cc1ccc(S(=O)(=O)NCc2ccc(C(=O)N3CCN(c4ccccn4)CC3)cc2)cc1", "hERG current change (%, negative = inhibition) at 10uM": -33.6}, {"smiles": "CC1=C2C3OC(=O)C(C)C3CC[C@@]2(C)C=CC1=O", "note": "(stereo partly drawn)", "hERG current change (%, negative = inhibition) at 10uM": 3.23}, {"smiles": "O=C(Nc1ccc(N2CCOCC2)cc1)c1cccc2c(Br)cccc12", "hERG current change (%, negative = inhibition) at 10uM": 8.6}, {"smiles": "Cl.O=C(Nc1ccccc1)OCC(CN1CCCCC1)OC(=O)Nc1ccccc1", "note": "(stereo not drawn)", "hERG current change (%, negative = inhibition) at 10uM": -60.1}, {"smiles": "Clc1ccc(/C=N/NC(=Nc2ccccc2)c2ccccn2)c(Cl)c1", "hERG current change (%, negative = inhibition) at 10uM": -2.69}, {"smiles": "Cc1ccc2ccc(S(=O)(=O)n3nc(C)cc3C)cc2c1", "hERG current change (%, negative = inhibition) at 10uM": 4.49}]}]}
